Some of the results follow.
Test system: S. aureus RN4220
Test: growth inhibition call (relative growth <= 0.2)
Conditions: 50 µM

Growth inhibition call, inactive:
C[C@@H]1CCCCO[C@H](CN(C)S(=O)(=O)c2ccc(F)cc2)[C@@H](C)CN([C@H](C)CO)C(=O)c2cc(NC(=O)CCCCCC(=O)Nc3ccccc3N)ccc2O1
Cc1ccc(S(=O)(=O)N(C)C[C@@H]2OCCCC[C@@H](C)Oc3ccc(NC(=O)CCCCCC(=O)Nc4ccccc4N)cc3C(=O)N([C@H](C)CO)C[C@@H]2C)cc1
CCN(CCO)CCCOc1ccc2c(Nc3cc(CC(=O)Nc4cccc(F)c4)n[nH]3)ncnc2c1
COc1ccc(C(=O)Nc2ccc(CN3C(=O)[C@@]4(O[C@@H](CC(=O)N(CCO)Cc5ccccc5)[C@H]([Si](C)(C)c5ccc(OC)cc5)[C@H]4C)c4ccccc43)cc2)cc1
O=C(C[C@@H]1CC[C@@H]2[C@H](COC[C@@H](O)CN2S(=O)(=O)c2ccc(Cl)cc2)O1)NCCN1CCCC1
Cc1ccc(S(=O)(=O)N[C@H]2CC[C@H](CCNC(=O)CN3CCOCC3)O[C@H]2CO)cc1
COc1ccc(C#Cc2ccc3c(c2)[C@H]2[C@H](CCN2C(=O)Nc2ccc(C(F)(F)F)cc2)[C@@H](CO)N3C)cc1
C[C@@H]1CN([C@H](C)CO)C(=O)Cc2cc(NC(=O)CCN3CCOCC3)ccc2O[C@H]1CN(C)Cc1ccc2c(c1)OCO2
C[C@H](CO)N1C[C@H](C)[C@H](CN(C)C(=O)C2CCCCC2)OCCCC[C@H](C)Oc2ccc(NC(=O)C3CCCCC3)cc2C1=O
C[C@@H]1CN([C@H](C)CO)C(=O)c2cccc(NC(=O)Nc3ccc(C(F)(F)F)cc3)c2O[C@H]1CN(C)Cc1ccc(-c2ccccc2)cc1

From the antibiotic and cytotoxicity screens of Wong et al. (2023)
